Earlier results on one molecule are cited in paper PMC4810223 (Toxins, 2016).

For the data set the following is noted: cited from earlier work.

Take `NC(=O)[C@@H]1CC[C@H](c2ccc(OCc3ccccc3F)cc2)N1` [CNV1014802]: the protein bound is 94%.
